Assay results reported in PubChem BioAssay (NCATS).
Values joined by “and” are separate entries in the source; they are usually repeats but may differ in a detail not shown here. Identical values can stand only once. Some of the results follow. These are further read-outs of the screen, such as a control signal, another cell line or another target. No call is given for them. The list favours compounds with an active or inconclusive main result. Words in brackets tell the shape of the fitted curve; partial curves, single points and poor fits give uncertain potencies.

Experiment: qHTS Assay for Lipid Storage Modulators (AID 1519)
Conditions: Drosophila S3 cells, BODIPY lipid droplet/cell ratio, laser cytometry, cells loaded with oleic acid
Summary of the method: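 Cells seeded at 5,000 per well were treated with compounds over a concentration series and loaded with oleic acid (400 uM, as added). Lipid droplet fluorescence (488 nm excitation, 500-530 nm channel) was read by laser-scanning cytometry and normalized to 20 uM Triacsin C.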

[1] = measured here: cell count channel max response
[2] = measured here: cell number channel AC50
[3] = measured here: lipid (BODIPY) channel AC50
[4] = measured here: lipid channel max response
Tags describe the fitted curve by direction and shape.

Compound: CCCN1CCO[C@@H]2c3cc(O)ccc3OC[C@@H]21
- max response [1]: -34.2%
- AC50 [2]: 0.631 µM [falling, full curve, poor fit]
- AC50 [3]: 2.24 µM [falling, partial curve, poor fit]
- max response [4]: -36.4%

Compound: CN(C)C(=O)Oc1cccc([N+](C)(C)C)c1
- max response [1]: 9.93%
- AC50 [2]: 0.631 µM [falling, full curve, poor fit]
- AC50 [3]: 0.631 µM [falling, full curve, poor fit]
- max response [4]: 12%

Compound: CN(C)C1C(=O)C(C(N)=O)=C(O)[C@@]2(O)C(=O)C3=C(O)c4c(O)cccc4[C@](C)(O)C3C(O)C12 (stereo partly drawn)
- max response [1]: 32.7%
- AC50 [2]: 5.62 µM [rising, full curve]
- AC50 [3]: 10 µM [rising, partial curve]
- max response [4]: 59.3%

Compound: O=C1CCc2c(ccc3ccccc23)O1
- max response [1]: 62.6%
- AC50 [2]: 17.8 µM [rising, full curve, poor fit]
- AC50 [3]: 17.8 µM [rising, full curve]
- max response [4]: 73.6%

Compound: CC1(C)S[C@H]2[C@@H](N)C(=O)N2[C@H]1C(=O)O
- max response [1]: 46%
- AC50 [2]: 39.8 µM [rising, single point]
- AC50 [3]: 39.8 µM [rising, single point]
- max response [4]: 58.5%

Compound: CC[N+](CC)(CC)CCOc1cccc(OCC[N+](CC)(CC)CC)c1OCC[N+](CC)(CC)CC
- max response [1]: 44.2%
- AC50 [2]: 39.8 µM [rising, single point]
- AC50 [3]: 39.8 µM [rising, single point]
- max response [4]: 46.4%

Compound: O=CN1CC2CC(C1)c1cccc(=O)n1C2 (stereo not drawn)
- max response [1]: 51.1%
- AC50 [2]: 35.5 µM [rising, partial curve, poor fit]
- AC50 [3]: 28.2 µM [rising, partial curve, poor fit]
- max response [4]: 50%

Compound: Ic1cncc(OC[C@@H]2CCN2)c1
- max response [1]: 66.4%
- AC50 [2]: 35.5 µM [rising, partial curve, poor fit]
- AC50 [3]: 35.5 µM [rising, partial curve, poor fit]
- max response [4]: 83.4%

Compound: C=CCc1cc(OC)c2c(c1OC)OCO2
- max response [1]: 35.2%
- AC50 [2]: 11.2 µM [rising, partial curve]
- AC50 [3]: 5.62 µM [rising, partial curve]
- max response [4]: 49%

Compound: CCN(CC)c1ncnc2c1ncn2[C@@H]1O[C@H](COP(=O)(O)OP(=O)(O)C(Br)(Br)P(=O)(O)O)[C@@H](O)[C@H]1O
- max response [1]: 37.1%
- AC50 [2]: 4.47 µM [falling, partial curve, poor fit]
- AC50 [3]: 3.55 µM [falling, full curve, poor fit]
- max response [4]: 36.8%

Compound: CCCCCCCC/C=C\CCCCCCCC(N)=O
- max response [1]: 31.2%
- AC50 [2]: 31.6 µM [rising, single point]
- AC50 [3]: 35.5 µM [rising, single point]
- max response [4]: 40.2%

Compound: O=c1cc(-c2ccc(O)c(O)c2)oc2cc(O)cc(O)c12
- max response [1]: -43.5% and 59.6%
- AC50 [2]: 22.4 µM [falling, single point] and 14.1 µM [rising, partial curve, poor fit]
- AC50 [3]: 20 µM [falling, single point] and 44.7 µM [falling, single point]
- max response [4]: -60.3% and -43.2%

Compound: CN(C)Cc1c[nH]c2ccccc12
- max response [1]: 65.6%
- AC50 [2]: 2.24 µM [rising, full curve, poor fit]
- AC50 [3]: 3.55 µM [rising, full curve, poor fit]
- max response [4]: 89.2%

Compound: O=C(/C=C\c1ccc(Cl)cc1)N[C@@]12CCC(=O)[C@@H]3Oc4c(O)ccc5c4[C@@]31CCN(CC1CC1)[C@@H]2C5
- max response [1]: 66%
- AC50 [2]: 12.6 µM [rising, partial curve, poor fit]
- AC50 [3]: 3.16 µM [rising, full curve, poor fit]
- max response [4]: 55.1%

Compound: Clc1ccc(COC(Cn2ccnc2)c2ccc(Cl)cc2Cl)c(Cl)c1 (stereo not drawn)
- max response [1]: -35.8%
- AC50 [2]: 20 µM [falling, single point]
- AC50 [3]: 20 µM [falling, single point]
- max response [4]: -42.9%

Compound: CN1CCc2cc3c(cc2C1C1OC(=O)c2c1ccc1c2OCO1)OCO3 (stereo not drawn)
- max response [1]: 66.3%
- AC50 [2]: 12.6 µM [rising, partial curve]
- AC50 [3]: 14.1 µM [rising, partial curve]
- max response [4]: 85%

Compound: COc1cc2c(cc1O)C[C@H]1c3c(cc(OC)c(O)c3-2)CCN1C
- max response [1]: 76.5%
- AC50 [2]: 28.2 µM [rising, partial curve, poor fit]
- AC50 [3]: 31.6 µM [rising, partial curve]
- max response [4]: 103%
